The supplement of paper PMC3334620
In all, about 33,000 sequences were measured (“E-score (-0.5 to 0.5)”: median about -0.012, highest 2% from about 0.27 on). The list shows a part of the results.

Target: T1, Vhr1 (UniProt P40522)
T1 sequence: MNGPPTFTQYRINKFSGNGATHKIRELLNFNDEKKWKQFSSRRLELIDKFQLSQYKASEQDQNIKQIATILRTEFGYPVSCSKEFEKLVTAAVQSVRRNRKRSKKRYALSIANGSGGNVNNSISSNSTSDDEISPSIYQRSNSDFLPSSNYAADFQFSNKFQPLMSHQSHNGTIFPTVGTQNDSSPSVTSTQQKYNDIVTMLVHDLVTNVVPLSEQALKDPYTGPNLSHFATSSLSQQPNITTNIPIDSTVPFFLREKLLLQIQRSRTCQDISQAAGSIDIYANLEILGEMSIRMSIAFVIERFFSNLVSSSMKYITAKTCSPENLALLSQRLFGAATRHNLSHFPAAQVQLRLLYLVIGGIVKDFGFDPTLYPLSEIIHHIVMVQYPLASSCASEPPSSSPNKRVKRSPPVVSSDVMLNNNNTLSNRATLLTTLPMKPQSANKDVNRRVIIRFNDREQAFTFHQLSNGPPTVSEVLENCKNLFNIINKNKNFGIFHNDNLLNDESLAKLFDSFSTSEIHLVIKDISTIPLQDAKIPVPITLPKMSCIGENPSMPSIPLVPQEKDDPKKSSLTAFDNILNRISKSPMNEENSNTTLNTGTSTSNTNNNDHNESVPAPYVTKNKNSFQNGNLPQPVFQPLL
Experiment: PBM E-score (8-mer binding enrichment) (E-score (-0.5 to 0.5)); higher = stronger / more preferred TF binding; most listed sequences are background and not binding sites
Settings: protein concentration: 200 nM; construct: GST-full length
Method: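 Universal 'all 10-mer' protein binding microarrays (Agilent AMADID 015681) probed with GST-tagged S. cerevisiae TFs (full-length or DBD) made by in vitro transcription/translation (PURExpress), about 100-200 nM. Bound TF was detected with fluorescent anti-GST. Each ungapped 8-mer (which stands for itself and its reverse complement) is scored by the PBM enrichment score (E-score), a modified Wilcoxon-Mann-Whitney statistic from -0.5 to +0.5, computed with the Universal PBM Analysis Suite. Scale: above 0.35 generally sequence-specific binding.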

Sequence | PBM E-score
TGATTCCA | 0.364
ACATAAGA | 0.0637
ATTGTCGA | 0.0708
AATGCAGG | 0.0726
CACATGTC | 0.065
ATCACGAC | 0.0915
CTGATCAG | 0.0954
AACAATAG | 0.0304
GCACTTGA | -0.145
CGTATCAA | -0.143
AGATTCTC | -0.00317
ATCACACG | 0.102
ATTCTGAA | -0.0643
CGGTTTGA | 0.00753
CACCGCGC | 0.194
AAGTTTAG | -0.0765
AGGGTTTG | 0.019
AAGACTGC | -0.132
AGCGACTG | 0.194
TAAATAGA | -0.332
ACACAGCA | 0.286
CAGGAGCA | -0.0241
GCGGCCGA | 0.0326
CATCGTCC | 0.179
CGTGGTGC | -0.275

Sequence | PBM E-score
ATTGGTGA | 0.0537
GGATGAGA | -0.00804
GAGTTCAA | -0.171
CCACATGC | 0.118
ATTACACA | 0.233
AGGCGATC | -0.133
AAGATCCC | -0.07
ACCGCGAT | -0.0571
AGGAATCG | 0.0478
CCGAGCGG | 0.0783
AGCCTCAG | 0.0596
GTCATTTA | 0.114
CATGGTGC | -0.084
ACTTAGGG | 0.001
CGGTTTGC | -0.0432
AAAGATTG | -0.137
CTGAATCC | 0.224
GGGCGGCA | -0.0948
CATTTGTC | -0.115
GTAGAGGA | -0.261
GCCAGAGA | -0.0762
CATGAGGG | -0.0955
ACCCTCGG | -0.0507
CATACTGA | 0.123
GACATACA | 0.155

Sequence | PBM E-score
ACTAACTG | 0.257
CCATAACG | 0.0844
GGAAAATA | -0.0659
GAGCCTGA | -0.0227
AACGTCTA | -0.148
GAAGGTTA | -0.0452
GCCACTGA | 0.0772
CCCTTGAG | -0.0267
ATAACTTC | 0.0525
AAGGAGGA | -0.313
AAATTCTC | -0.24
GCATGGGA | -0.0657
CGACCTGA | 0.00296
GATCCCAA | -0.197
CCTATTGC | -0.229
AAATACCT | -0.212
AACGCCGT | -0.268
AATCAGCG | 0.25
ACACTGGA | 0.181
GCTGTATA | -0.0417
CGGCAGCA | -0.0628
TCGTGGCA | -0.017
GCGCTTAA | -0.108
CGACTTCC | -0.113
GCGTCTAA | -0.205

Sequence | PBM E-score
AAATACTC | 0.0554
AGGTCGCG | -0.0518
CGAGAGGC | -0.198
ACCTACCA | 0.147
CGCTAGAA | -0.114
ATGGCGGG | 0.23
ATGGGCGA | 0.205
ACTATGAA | 0.0955
CGCAGCTC | -0.0964
GTCCGCAA | 0.053
ATGGCAGG | 0.0464
GCCTTTCA | -0.137
AGACAAGG | -0.152
GAGCTTGA | -0.0784
CGGAACCC | 0.0267
ATTGAATC | -0.0678
AGAGAAGG | -0.0657
ATTTCACG | -0.0211
AGACTAAG | -0.101
ACTTATCC | -0.0236
AGTTGAGG | -0.0649
GCCTGGAC | -0.0385
AAGGTTTC | -0.0254
ACCTGCTA | -0.0446
TACAGGCA | 0.0836

Sequence | PBM E-score
GTGTACAC | 0.0577
AGGGCATA | -0.112
CGTGTTAC | 0.147
GTGAGTAA | 0.24
ATTAAATC | 0.16
ATTGATTA | 0.0719
GTATAATA | 0.144
ACGTCGCC | -0.0978
ACCGGGGG | -0.135
GTCCTAAA | 0.0155
ACACGCTA | 0.0344
GCGACTTA | -0.104
AGTCATGA | 0.466
CTCCGTAC | 0.0746
CGATAAAG | -0.215
CAATGTAG | 0.00218
GACGTAGA | -0.195
AGGTCACC | -0.16
AGCCAGAG | 0.0139
AGATCATG | -0.0772
ACGCCGGG | -0.00379
ACCCAGCT | 0.0775
CCTGTCTC | 0.0917
AAGTGCAC | -0.102
AATAATAC | 0.054

Sequence | PBM E-score
CAGTACGA | 0.205
CTAGATTA | -0.0479
ACCGAAAC | 0.0907
TCCAACGA | -0.053
CTTAGGGC | -0.277
ATTGTGCC | -0.0216
CAAAGTCG | 0.0683
AGTGGTAG | -0.0489
GCGCGAAC | 0.0578
ATGGTAGG | 0.104
CCACCAGG | 0.0638
AGTAGGGC | -0.124
ACCCTTTG | -0.15
CGTTTTAC | -0.192
AACGGGAT | 0.124
CTATAAAC | -0.0253
CTACGCCC | 0.0207
TAGTTCGA | -0.0462
CCTCCCTC | 0.0814
GCAACTCC | -0.159
GAACCCAA | -0.0255
ATCAGATG | 0.00821
ATTTGACG | -0.0841
GTATGGGA | -0.178
GGATCTCA | -0.0499

Sequence | PBM E-score
CGTGATAC | -0.05
AATGCGGC | -0.0647
CGGTGGTA | 0.0145
GTAGGTCA | -0.128
GAGTTGGA | 0.0988
GACATCCA | 0.004
GCCAATCA | -0.0381
GAGGCAGC | -0.137
CGCTAAGC | -0.0793
AGGACTGA | -0.143
AGTCATTA | 0.368
ACAGAGAC | 0.146
ACACTCGC | 0.164
GAAATTGC | -0.136
GGTTACAC | -0.0231
AAACCACG | -0.079
CCCGAGAC | -0.0145
ACCTGCAC | -0.0149
CATATCGC | 0.108
GGGGGAAC | 0.0678
TGAAACAA | -0.0756
TACGCAGA | 0.123
